Data published in EPA's CvTdb concentration-time database.
This continues a long series; more values of the same kind are listed elsewhere.

Tests used:
Rat [1] = assay: concentration in brain after dosing; conditions: 10 min; dosed: 2-Methyltetrahydrofuran; 400 mg/kg; oral; Female; Harlan Sprague Dawley
Rat [2] = assay: concentration in brain after dosing; conditions: 20 min; dosed: 2-Methyltetrahydrofuran; 10 mg/kg; oral; Male; F344
Rat [3] = assay: concentration in brain after dosing; conditions: 2 h; dosed: 2-Methyltetrahydrofuran; 30 mg/kg; oral; Female; F344
Rat [4] = assay: concentration in brain after dosing; conditions: 8 h; dosed: 2-Methyltetrahydrofuran; 400 mg/kg; oral; Male; F344
Rat [5] = assay: concentration in brain after dosing; conditions: 8 h; dosed: 2-Methyltetrahydrofuran; 400 mg/kg; oral; Female; Harlan Sprague Dawley
Rat [6] = assay: concentration in brain after dosing; conditions: 0.5 h; dosed: 2-Methyltetrahydrofuran; 10 mg/kg; oral; Male; F344
Rat [7] = assay: concentration in plasma after dosing; conditions: 1 h; dosed: 2-Methyltetrahydrofuran; 10 mg/kg; iv; Female; F344
Rat [8] = assay: concentration in brain after dosing; conditions: 5 min; dosed: 2-Methyltetrahydrofuran; 10 mg/kg; iv; Female; F344
Rat [9] = assay: concentration in brain after dosing; conditions: 4 min; dosed: 2-Methyltetrahydrofuran; 30 mg/kg; oral; Male; F344
Rat [10] = assay: concentration in brain after dosing; conditions: 10 min; dosed: 2-Methyltetrahydrofuran; 10 mg/kg; oral; Female; F344
Rat [11] = assay: concentration in plasma after dosing; conditions: 6 h; dosed: 2-Methyltetrahydrofuran; 100 mg/kg; oral; Female; Harlan Sprague Dawley
Rat [12] = assay: concentration in brain after dosing; conditions: 5 min; dosed: 2-Methyltetrahydrofuran; 400 mg/kg; oral; Male; F344
Rat [13] = assay: concentration in plasma after dosing; conditions: 1 h; dosed: 2-Methyltetrahydrofuran; 10 mg/kg; iv; Male; F344
Rat [14] = assay: concentration in brain after dosing; conditions: 6 h; dosed: 2-Methyltetrahydrofuran; 100 mg/kg; oral; Female; Harlan Sprague Dawley
Rat [15] = assay: concentration in brain after dosing; conditions: 4 h; dosed: 2-Methyltetrahydrofuran; 400 mg/kg; oral; Female; F344
Rat [16] = assay: concentration in brain after dosing; conditions: 0.75 h; dosed: 2-Methyltetrahydrofuran; 400 mg/kg; oral; Male; F344
Rat [17] = assay: concentration in plasma after dosing; conditions: 4 h; dosed: 2-Methyltetrahydrofuran; 100 mg/kg; oral; Female; Harlan Sprague Dawley
Rat [18] = assay: concentration in plasma after dosing; conditions: 0.75 h; dosed: 2-Methyltetrahydrofuran; 400 mg/kg; oral; Male; F344
Rat [19] = assay: concentration in plasma after dosing; conditions: 2 min; dosed: 2-Methyltetrahydrofuran; 10 mg/kg; oral; Female; F344
Rat [20] = assay: concentration in brain after dosing; conditions: 1.5 h; dosed: 2-Methyltetrahydrofuran; 100 mg/kg; oral; Female; Harlan Sprague Dawley
Rat [21] = assay: concentration in brain after dosing; conditions: 0.25 h; dosed: 2-Methyltetrahydrofuran; 30 mg/kg; oral; Male; F344
Rat [22] = assay: concentration in brain after dosing; conditions: 0.75 h; dosed: 2-Methyltetrahydrofuran; 400 mg/kg; oral; Female; Harlan Sprague Dawley
Rat [23] = assay: concentration in brain after dosing; conditions: 1.5 h; dosed: 2-Methyltetrahydrofuran; 100 mg/kg; oral; Male; Harlan Sprague Dawley
Rat [24] = assay: concentration in plasma after dosing; conditions: dosed: Bromochloroacetic acid, 100 mg/kg, oral, Female, F344
Rat [25] = assay: concentration in plasma after dosing; conditions: 3 h; dosed: Fluorotelomer alcohol 8+2; 80 mg/kg; oral; Female; Harlan Sprague Dawley
Rat [26] = assay: concentration in plasma after dosing; conditions: dosed: Fluorotelomer alcohol 8+2, 80 mg/kg, oral, Female, Harlan Sprague Dawley
Rat [27] = assay: concentration in plasma after dosing; conditions: dosed: Formamide, 90 mg/kg, iv, Male, Harlan Sprague Dawley
Rat [28] = assay: concentration in plasma after dosing; conditions: dosed: Formamide, 90 mg/kg, iv, Male, Harlan Sprague Dawley; remark: listed apart in the source
Rat [29] = assay: concentration in plasma after dosing; conditions: dosed: Formamide, 300 mg/kg, oral, Female, Harlan Sprague Dawley
Rat [30] = assay: concentration in plasma after dosing; conditions: dosed: Formamide, 36 mg/kg, oral, Female, Harlan Sprague Dawley
Rat [31] = assay: concentration in plasma after dosing; conditions: dosed: Formamide, 600 mg/kg, oral, Male, Harlan Sprague Dawley
Rat [32] = assay: concentration in plasma after dosing; conditions: dosed: Formamide, 90 mg/kg, iv, Male, Harlan Sprague Dawley; remark: listed apart in the source
Rat [33] = assay: concentration in plasma after dosing; conditions: dosed: Formamide, 36 mg/kg, oral, Female, Harlan Sprague Dawley; remark: listed apart in the source
Rat [34] = assay: concentration in plasma after dosing; conditions: dosed: Formamide, 36 mg/kg, oral, Male, Harlan Sprague Dawley
Rat [35] = assay: concentration in plasma after dosing; conditions: dosed: Formamide, 36 mg/kg, oral, Female, Harlan Sprague Dawley; remark: listed apart in the source
Rat [36] = assay: concentration in plasma after dosing; conditions: 40 min; dosed: Pyridine; 50 mg/kg; oral; Female; F344
Rat [37] = assay: concentration in plasma after dosing; conditions: 0.25 h; dosed: Pyridine; 0.5 mg/kg; iv; Male; F344
Rat [38] = assay: concentration in plasma after dosing; conditions: 10 min; dosed: Pyridine; 50 mg/kg; oral; Male; Harlan Sprague Dawley

CC1CCCO1 (centres undefined) [2-Methyltetrahydrofuran]
Conditions	concentration in brain [µg/g]	concentration in plasma [ng/mL]
Rat [1]	135	–
Rat [2]	3.24	–
Rat [3]	1.8	–
Rat [4]	46.3	–
Rat [5]	33.4	–
Rat [6]	2.07	–
Rat [7]	–	1280
Rat [8]	7.15	–
Rat [9]	6.65	–
Rat [10]	4.13	–
Rat [11]	–	2590
Rat [12]	222	–
Rat [13]	–	2980
Rat [14]	2.07	–
Rat [15]	85.8	–
Rat [16]	126	–
Rat [17]	–	21200
Rat [18]	–	187000
Rat [19]	–	753
Rat [20]	72.6	–
Rat [21]	11.6	–
Rat [22]	158	–
Rat [23]	33.9	–

O=C(O)C(Cl)Br (centres undefined) [Bromochloroacetic acid]
Rat [24]
Conditions	concentration in plasma [ng/mL]
0.25 h	20300
6 h	1750

OCCC(F)(F)C(F)(F)C(F)(F)C(F)(F)C(F)(F)C(F)(F)C(F)(F)C(F)(F)F [Fluorotelomer alcohol 8+2]
Conditions	concentration in plasma [ng/mL]
Rat [25]	916

Rat [26]
Conditions	concentration in plasma [ng/mL]
0.75 h	963
48 h	2.32

NC=O [Formamide]
Conditions	concentration in plasma [ng/mL]
Rat [27], 0.25 h	79700
Rat [27], 24 h	35600
Rat [28], 0.25 h	182000
Rat [28], 24 h	28100
Rat [29], 0.5 h	163000
Rat [29], 48 h	19200
Rat [30], 2 h	52300
Rat [30], 5 min	11300
Rat [31], 10 min	424000
Rat [31], 20 h	488000
Rat [32], 0.5 h	118000
Rat [32], 48 h	5700
Rat [33], 10 min	21600
Rat [33], 20 h	14600
Rat [34], 8 h	40800
Rat [34], 12 h	31200
Rat [35], 0.5 h	32400
Rat [35], 48 h	2400

c1ccncc1 [Pyridine]
Conditions	concentration in plasma [ng/mL]
Rat [36]	26900
Rat [37]	263
Rat [38]	44500
